Reference: article PMC10805704, “VCIP135 associates with both the N- and C-terminal regions of p97 ATPase” (The Journal of Biological Chemistry, 2023)
No constants are given. Whether binding was seen depends on the method and setting. Some results given as binding are weak or reduced against the parent protein; the word gives no strength. Tags and fused reporters may be left off the sequences shown.

The chains behind the UniProt entries cited, without tags or fusion partners.
UniProt P46462: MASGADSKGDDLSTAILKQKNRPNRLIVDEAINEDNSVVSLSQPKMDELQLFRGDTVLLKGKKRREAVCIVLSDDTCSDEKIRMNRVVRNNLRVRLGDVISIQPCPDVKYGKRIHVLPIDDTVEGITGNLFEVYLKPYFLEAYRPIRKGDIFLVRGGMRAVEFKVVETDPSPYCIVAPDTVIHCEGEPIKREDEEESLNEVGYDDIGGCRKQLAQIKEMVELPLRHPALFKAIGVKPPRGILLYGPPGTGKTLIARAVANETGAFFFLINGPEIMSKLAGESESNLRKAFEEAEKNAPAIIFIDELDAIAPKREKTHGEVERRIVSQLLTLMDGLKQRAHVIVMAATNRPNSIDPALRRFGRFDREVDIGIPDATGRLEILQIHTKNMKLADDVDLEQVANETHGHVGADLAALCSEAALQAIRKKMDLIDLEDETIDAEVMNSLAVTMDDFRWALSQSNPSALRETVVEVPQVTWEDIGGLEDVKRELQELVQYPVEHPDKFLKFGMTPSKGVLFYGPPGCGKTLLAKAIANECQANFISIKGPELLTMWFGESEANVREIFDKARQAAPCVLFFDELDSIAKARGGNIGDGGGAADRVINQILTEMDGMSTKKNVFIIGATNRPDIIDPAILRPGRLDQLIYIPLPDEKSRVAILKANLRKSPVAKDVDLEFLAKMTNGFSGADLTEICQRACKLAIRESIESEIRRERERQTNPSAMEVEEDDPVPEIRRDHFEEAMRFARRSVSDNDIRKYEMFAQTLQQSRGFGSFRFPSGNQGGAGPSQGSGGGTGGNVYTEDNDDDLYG

T1: GST-tagged VCIP135(F1024L/L1031P) (rat) (UniProt Q8CF97)
T1 sequence: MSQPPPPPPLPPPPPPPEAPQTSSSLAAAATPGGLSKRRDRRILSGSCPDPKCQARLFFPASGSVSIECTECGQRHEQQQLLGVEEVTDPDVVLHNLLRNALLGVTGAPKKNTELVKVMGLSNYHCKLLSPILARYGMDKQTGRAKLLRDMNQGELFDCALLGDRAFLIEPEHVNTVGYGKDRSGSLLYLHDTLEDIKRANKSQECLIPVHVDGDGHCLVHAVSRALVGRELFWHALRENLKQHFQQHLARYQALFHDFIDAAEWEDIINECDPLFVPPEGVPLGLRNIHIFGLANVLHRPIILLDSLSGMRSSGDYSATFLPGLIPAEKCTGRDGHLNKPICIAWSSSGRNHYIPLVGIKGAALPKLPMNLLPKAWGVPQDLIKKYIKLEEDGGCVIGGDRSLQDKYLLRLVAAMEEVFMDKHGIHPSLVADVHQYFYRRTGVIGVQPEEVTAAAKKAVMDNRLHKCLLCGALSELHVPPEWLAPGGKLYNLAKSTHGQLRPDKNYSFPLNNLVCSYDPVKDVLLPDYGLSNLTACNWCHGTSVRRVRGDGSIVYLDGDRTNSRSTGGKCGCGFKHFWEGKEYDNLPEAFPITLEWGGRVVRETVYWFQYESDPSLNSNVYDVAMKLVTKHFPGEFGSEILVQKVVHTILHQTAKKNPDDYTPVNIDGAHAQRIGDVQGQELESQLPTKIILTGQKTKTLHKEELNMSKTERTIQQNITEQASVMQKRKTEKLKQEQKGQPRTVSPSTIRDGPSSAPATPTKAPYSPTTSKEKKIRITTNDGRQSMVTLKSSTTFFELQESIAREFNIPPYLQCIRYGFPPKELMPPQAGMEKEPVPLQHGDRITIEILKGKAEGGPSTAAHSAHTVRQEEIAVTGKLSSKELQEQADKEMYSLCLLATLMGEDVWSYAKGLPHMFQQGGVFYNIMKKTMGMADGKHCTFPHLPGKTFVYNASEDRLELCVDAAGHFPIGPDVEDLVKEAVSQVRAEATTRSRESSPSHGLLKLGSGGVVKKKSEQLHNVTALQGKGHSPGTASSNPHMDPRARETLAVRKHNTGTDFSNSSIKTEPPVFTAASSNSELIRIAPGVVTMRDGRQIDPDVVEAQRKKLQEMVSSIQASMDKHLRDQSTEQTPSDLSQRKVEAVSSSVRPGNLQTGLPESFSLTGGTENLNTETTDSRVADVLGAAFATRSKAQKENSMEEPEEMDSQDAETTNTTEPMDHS


Key:
[1] = target: T1, GST-tagged VCIP135(F1024L/L1031P) (rat); assay: pull-down; GST-VCIP135(F1024L/L1031P) (0.90 μg) incubated with His-p97wt (1.2 μg) or His-p97(199-806) (2.0 μg), isolated on glutathione beads, then incubated with His-VCIP135wt (1.0 μg); all in 1 mM AMP-PNP; Western blot with antibodies to GST-tag and His-tag; both purified
[2] = target: endogenous p97 purified from rat liver cytosol, biotinylated (rat (endogenous in rat liver)) (UniProt P46462); assay: pull-down; endogenous rat liver p97, biotinylated, immobilised on streptavidin beads; His-tagged VCIP135 or its fragments or mutants in solution; 1 mM AMP-PNP (Figs 1A, 5C, 5D: the indicated nucleotide, 1 mM); 20 mM HEPES, 100 mM KCl, 1 mM MgCl2, 1 mM DTT, 0.5% CHAPS, 10% glycerol, pH 7.4; Western blot with antibodies to p97 and His-tag; both purified
[3] = target: GST-VCIP135(F1024L/L1031P) incubated with His-tagged p97(199-806) (p97ΔN) and isolated on glutathione beads (rat | not stated) (UniProt Q8CF97+P46462); assay: pull-down; GST-VCIP135(F1024L/L1031P) (0.90 μg) incubated with His-p97wt (1.2 μg) or His-p97(199-806) (2.0 μg), isolated on glutathione beads, then incubated with His-VCIP135wt (1.0 μg); all in 1 mM AMP-PNP; Western blot with antibodies to GST-tag and His-tag; both purified
[4] = target: complex of GST-VCIP135(F1024L/L1031P) and His-tagged p97wt, formed beforehand and isolated on glutathione beads (rat | not stated) (UniProt Q8CF97+P46462); assay: as above

Row | Molecule | binding [2] | other results
1 | His-tagged p97wt (from UniProt P46462 1-806) | – | binding [1]: binds
2 | His-tagged VCIP135(744-999) (domain or fragment, UniProt Q8CF97 744-999) TVSPSTIRDGPSSAPATPTKAPYSPTTSKEKKIRITTNDGRQSMVTLKSSTTFFELQESIAREFNIPPYLQCIRYGFPPKELMPPQAGMEKEPVPLQHGDRITIEILKGKAEGGPSTAAHSAHTVRQEEIAVTGKLSSKELQEQADKEMYSLCLLATLMGEDVWSYAKGLPHMFQQGGVFYNIMKKTMGMADGKHCTFPHLPGKTFVYNASEDRLELCVDAAGHFPIGPDVEDLVKEAVSQVRAEATTRSRESSPS | no binding (tested: 0.33 μg (p97 on beads, 0.75 μg)) | –
3 | His-tagged full-length VCIP135 (protein, UniProt Q8CF97 1-1221) MSQPPPPPPLPPPPPPPEAPQTSSSLAAAATPGGLSKRRDRRILSGSCPDPKCQARLFFPASGSVSIECTECGQRHEQQQLLGVEEVTDPDVVLHNLLRNALLGVTGAPKKNTELVKVMGLSNYHCKLLSPILARYGMDKQTGRAKLLRDMNQGELFDCALLGDRAFLIEPEHVNTVGYGKDRSGSLLYLHDTLEDIKRANKSQECLIPVHVDGDGHCLVHAVSRALVGRELFWHALRENLKQHFQQHLARYQALFHDFIDAAEWEDIINECDPLFVPPEGVPLGLRNIHIFGLANVLHRPIILLDSLSGMRSSGDYSATFLPGLIPAEKCTGRDGHLNKPICIAWSSSGRNHYIPLVGIKGAALPKLPMNLLPKAWGVPQDLIKKYIKLEEDGGCVIGGDRSLQDKYLLRLVAAMEEVFMDKHGIHPSLVADVHQYFYRRTGVIGVQPEEVTAAAKKAVMDNRLHKCLLCGALSELHVPPEWLAPGGKLYNLAKSTHGQLRPDKNYSFPLNNLVCSYDPVKDVLLPDYGLSNLTACNWCHGTSVRRVRGDGSIVYLDGDRTNSRSTGGKCGCGFKHFWEGKEYDNLPEAFPITLEWGGRVVRETVYWFQYESDPSLNSNVYDVAMKLVTKHFPGEFGSEILVQKVVHTILHQTAKKNPDDYTPVNIDGAHAQRIGDVQGQELESQLPTKIILTGQKTKTLHKEELNMSKTERTIQQNITEQASVMQKRKTEKLKQEQKGQPRTVSPSTIRDGPSSAPATPTKAPYSPTTSKEKKIRITTNDGRQSMVTLKSSTTFFELQESIAREFNIPPYLQCIRYGFPPKELMPPQAGMEKEPVPLQHGDRITIEILKGKAEGGPSTAAHSAHTVRQEEIAVTGKLSSKELQEQADKEMYSLCLLATLMGEDVWSYAKGLPHMFQQGGVFYNIMKKTMGMADGKHCTFPHLPGKTFVYNASEDRLELCVDAAGHFPIGPDVEDLVKEAVSQVRAEATTRSRESSPSHGLLKLGSGGVVKKKSEQLHNVTAFQGKGHSLGTASSNPHMDPRARETLAVRKHNTGTDFSNSSIKTEPPVFTAASSNSELIRIAPGVVTMRDGRQIDPDVVEAQRKKLQEMVSSIQASMDKHLRDQSTEQTPSDLSQRKVEAVSSSVRPGNLQTGLPESFSLTGGTENLNTETTDSRVADVLGAAFATRSKAQKENSMEEPEEMDSQDAETTNTTEPMDHS | – | binding [3]: no binding (tested: 1.0 μg); binding [4]: binds
4 | His-tagged full-length VCIP135(L133S/F1024L/L1031P) (protein, UniProt Q8CF97 1-1221) MSQPPPPPPLPPPPPPPEAPQTSSSLAAAATPGGLSKRRDRRILSGSCPDPKCQARLFFPASGSVSIECTECGQRHEQQQLLGVEEVTDPDVVLHNLLRNALLGVTGAPKKNTELVKVMGLSNYHCKLLSPISARYGMDKQTGRAKLLRDMNQGELFDCALLGDRAFLIEPEHVNTVGYGKDRSGSLLYLHDTLEDIKRANKSQECLIPVHVDGDGHCLVHAVSRALVGRELFWHALRENLKQHFQQHLARYQALFHDFIDAAEWEDIINECDPLFVPPEGVPLGLRNIHIFGLANVLHRPIILLDSLSGMRSSGDYSATFLPGLIPAEKCTGRDGHLNKPICIAWSSSGRNHYIPLVGIKGAALPKLPMNLLPKAWGVPQDLIKKYIKLEEDGGCVIGGDRSLQDKYLLRLVAAMEEVFMDKHGIHPSLVADVHQYFYRRTGVIGVQPEEVTAAAKKAVMDNRLHKCLLCGALSELHVPPEWLAPGGKLYNLAKSTHGQLRPDKNYSFPLNNLVCSYDPVKDVLLPDYGLSNLTACNWCHGTSVRRVRGDGSIVYLDGDRTNSRSTGGKCGCGFKHFWEGKEYDNLPEAFPITLEWGGRVVRETVYWFQYESDPSLNSNVYDVAMKLVTKHFPGEFGSEILVQKVVHTILHQTAKKNPDDYTPVNIDGAHAQRIGDVQGQELESQLPTKIILTGQKTKTLHKEELNMSKTERTIQQNITEQASVMQKRKTEKLKQEQKGQPRTVSPSTIRDGPSSAPATPTKAPYSPTTSKEKKIRITTNDGRQSMVTLKSSTTFFELQESIAREFNIPPYLQCIRYGFPPKELMPPQAGMEKEPVPLQHGDRITIEILKGKAEGGPSTAAHSAHTVRQEEIAVTGKLSSKELQEQADKEMYSLCLLATLMGEDVWSYAKGLPHMFQQGGVFYNIMKKTMGMADGKHCTFPHLPGKTFVYNASEDRLELCVDAAGHFPIGPDVEDLVKEAVSQVRAEATTRSRESSPSHGLLKLGSGGVVKKKSEQLHNVTALQGKGHSPGTASSNPHMDPRARETLAVRKHNTGTDFSNSSIKTEPPVFTAASSNSELIRIAPGVVTMRDGRQIDPDVVEAQRKKLQEMVSSIQASMDKHLRDQSTEQTPSDLSQRKVEAVSSSVRPGNLQTGLPESFSLTGGTENLNTETTDSRVADVLGAAFATRSKAQKENSMEEPEEMDSQDAETTNTTEPMDHS | no binding (tested: 1.0 μg (p97 on beads, 0.40 μg)) | –
5 | His-tagged VCIP135(1054-1221) (domain or fragment, UniProt Q8CF97 1054-1221) NTGTDFSNSSIKTEPPVFTAASSNSELIRIAPGVVTMRDGRQIDPDVVEAQRKKLQEMVSSIQASMDKHLRDQSTEQTPSDLSQRKVEAVSSSVRPGNLQTGLPESFSLTGGTENLNTETTDSRVADVLGAAFATRSKAQKENSMEEPEEMDSQDAETTNTTEPMDHS | no binding (tested: 0.40 μg (p97 on beads, 0.75 μg)) | –
6 | His-tagged VCIP135(361-743) (domain or fragment, UniProt Q8CF97 361-743) KGAALPKLPMNLLPKAWGVPQDLIKKYIKLEEDGGCVIGGDRSLQDKYLLRLVAAMEEVFMDKHGIHPSLVADVHQYFYRRTGVIGVQPEEVTAAAKKAVMDNRLHKCLLCGALSELHVPPEWLAPGGKLYNLAKSTHGQLRPDKNYSFPLNNLVCSYDPVKDVLLPDYGLSNLTACNWCHGTSVRRVRGDGSIVYLDGDRTNSRSTGGKCGCGFKHFWEGKEYDNLPEAFPITLEWGGRVVRETVYWFQYESDPSLNSNVYDVAMKLVTKHFPGEFGSEILVQKVVHTILHQTAKKNPDDYTPVNIDGAHAQRIGDVQGQELESQLPTKIILTGQKTKTLHKEELNMSKTERTIQQNITEQASVMQKRKTEKLKQEQKGQPR | no binding (tested: 0.77 μg (p97 on beads, 0.50 μg)) | –
